{"source": "PubChem BioAssay AID1768", "about": "(National Center for Advancing Translational Sciences (NCATS), 2009)", "note": "Out of some 270,000 compounds screened, about 620 (0.23%) were called active. The inconclusive results got no clear call from the source; some entries with a clear call stand among them for comparison. The call rests on the fitted dose curve; in most records, active means well fitted inhibition curve with a large enough effect in the polarisation, with a control signal flat (not every such curve was filed as active); inconclusive means small, poorly fitted or top-dose-only effect, or effect the other way, or a change in a side signal; inactive means no such curve, though single readings can be large or run the other way; the % refers to the polarisation. Potencies beside an inconclusive call are fits to weak or partial responses and may not hold up. A note “side channel” means that the fit belongs to a control or component signal, not to the main read-out. Potency means the concentration at half of the fitted maximal effect; tags describe the fitted curve by direction and shape or compound fluorescence and quenching."}
{"target": "Menin (Homo sapiens) (UniProt O00255)", "sequence (O00255 whole entry, looked up)": "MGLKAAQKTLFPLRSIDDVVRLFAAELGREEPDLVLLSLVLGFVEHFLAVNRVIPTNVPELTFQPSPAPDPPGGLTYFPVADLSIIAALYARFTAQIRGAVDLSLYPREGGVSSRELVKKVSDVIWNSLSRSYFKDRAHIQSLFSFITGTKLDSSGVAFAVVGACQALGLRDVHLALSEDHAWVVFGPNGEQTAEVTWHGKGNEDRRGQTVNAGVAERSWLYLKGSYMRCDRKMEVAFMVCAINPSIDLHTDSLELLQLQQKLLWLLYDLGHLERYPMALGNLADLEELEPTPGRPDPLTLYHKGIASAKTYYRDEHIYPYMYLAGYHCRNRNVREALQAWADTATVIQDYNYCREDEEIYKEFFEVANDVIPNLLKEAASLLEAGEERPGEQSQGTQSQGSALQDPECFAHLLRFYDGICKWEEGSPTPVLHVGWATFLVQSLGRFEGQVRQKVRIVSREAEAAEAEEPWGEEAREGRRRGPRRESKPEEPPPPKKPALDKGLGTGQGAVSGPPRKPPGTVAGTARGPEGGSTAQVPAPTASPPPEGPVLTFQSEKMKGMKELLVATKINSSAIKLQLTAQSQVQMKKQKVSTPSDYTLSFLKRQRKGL", "experiment": "qHTS Assay for Inhibitors Targeting the Menin-MLL Interaction in MLL Related Leukemias: Competition With Texas Red Labeled MLL-derived Mutant Peptide; on FP activity change, negative = inhibition: % of control where 0% means no effect", "details": "fluorescence polarization; FP activity change, negative = inhibition: at 61.6 µM (top of the series)"}
{"smiles": "COC(=O)c1cc(-c2ccccc2)sc1NC(=O)CN1C(=O)c2ccccc2C1=O", "Potency": "inconclusive: 31.6 µM [inhibitor, single point]"}
{"smiles": "COC(=O)c1c(C)oc2ccc(N(C(=O)Oc3ccccc3)S(=O)(=O)c3ccc(Cl)c([N+](=O)[O-])c3)cc12", "Potency": "inconclusive: 25.1 µM [quencher, side channel, single point]"}
{"smiles": "CCCCOCCCNc1ncnc2c1[nH]c1ccccc12", "FP activity change, negative = inhibition": "inactive: 15.9%"}
{"smiles": "CCc1nnc(NS(=O)(=O)c2ccc(NC(=O)c3ccc(C#N)cc3)cc2)s1", "FP activity change, negative = inhibition": "inactive: 29.5%"}
{"smiles": "O=C(Cc1ccccc1Nc1c(Cl)cccc1Cl)OCO/N=[N+](\\[O-])N1CCCC1", "FP activity change, negative = inhibition": "inactive: -12.1%"}
{"smiles": "COc1ccc(C)cc1Nc1c2c(nc3ccccc13)CCC2", "Potency": "inconclusive: 15.8 µM [fluorescent, side channel, single point]"}
{"smiles": "CN(C)c1ccc(NC(=S)c2ccc3ccccc3n2)cc1", "Potency": "inconclusive: 39.8 µM [fluorescent, side channel, single point]"}
{"smiles": "COc1cccc(NC(=S)N(CCCN2CCCC2)Cc2cccn2Cc2ccc(Cl)cc2)c1", "Potency": "inconclusive: 3.16 µM [fluorescent, side channel, full curve, poor fit]"}
{"smiles": "O=C1c2ccccc2C(=O)N1CCCc1c[nH]c2ccc(Cl)cc12", "Potency": "inconclusive: 20 µM [quencher, side channel, partial curve]"}
{"smiles": "Cc1ccc(NC(=O)NCc2nc3ccccc3n2C)cc1", "Potency": "inconclusive: 3.16 µM [inhibitor, full curve, poor fit]"}
{"smiles": "COc1cccc([C@@H]2Oc3ccc(Br)cc3C(=O)[C@H]2OC(=O)Nc2cc(OC)c(OC)c(OC)c2)c1", "Potency": "inconclusive: 2.82 µM [inhibitor, full curve]"}
{"smiles": "Cc1ccc(-c2ccc(=O)n(CCC(=O)N3CCN(c4ccccc4)CC3)n2)cc1", "Potency": "inconclusive: 2.51 µM [inhibitor, full curve]"}
{"smiles": "Cc1cccc(-c2nc3c(c(SCC(=O)N(C)C)n2)CCCC3)c1", "Potency": "inconclusive: 4.47 µM [inhibitor, full curve, poor fit]"}
{"smiles": "O=S(=O)(Nc1ccccc1)c1ccc(NS(=O)(=O)c2cccs2)cc1", "Potency": "inconclusive: 0.708 µM [quencher, side channel, full curve, poor fit]"}
{"smiles": "CCNC(=O)N1CCN(CCCC(c2ccc(F)cc2)c2ccc(F)cc2)CC1", "Potency": "inconclusive: 17.8 µM [fluorescent, side channel, partial curve]"}
{"smiles": "Fc1ccc(C(OCCCc2cnc[nH]2)c2ccc(F)cc2)cc1", "Potency": "inconclusive: 17.8 µM [fluorescent, side channel, partial curve]"}
{"smiles": "C/C(=N\\NS(=O)(=O)c1ccccc1)c1cc(Cl)cc(Cl)c1O", "Potency": "inconclusive: 28.2 µM [quencher, side channel, single point]"}
{"smiles": "COc1ccc(NC(=O)c2ccc(F)c(F)c2)c2ccccc12", "Potency": "inconclusive: 35.5 µM [inhibitor, single point]"}
{"smiles": "CCOc1cc(/C=C2/SC(=O)N(CC(=O)N3CCc4ccccc4C3)C2=O)ccc1OCC(=O)O", "Potency": "inconclusive: 39.8 µM [quencher, side channel, single point]"}
{"smiles": "C/C(CCC(=O)OC[C@@H]1O[C@H](C#Cc2ccccc2)C=C[C@@H]1Oc1ccc(C)cc1)=N/O[C@@H](C)c1cn([C@H](CO)Cc2ccccc2)nn1", "Potency": "inconclusive: 6.31 µM [quencher, side channel, single point]"}
{"smiles": "CCOc1ccc(C(C)=O)cc1CSc1nc(C)cc(C)n1", "Potency": "inconclusive: 39.8 µM [inhibitor, single point]"}
{"smiles": "Cc1cc(C)c2[nH]c(=O)c(CN(Cc3ccc4c(c3)OCO4)Cc3nnnn3C3CCCC3)cc2c1", "Potency": "inconclusive: 2.82 µM [inhibitor, full curve, poor fit]"}
{"smiles": "C=CCn1c(SCC(=O)N2CCc3ccccc3C2)nc2sc(C)cc2c1=O", "Potency": "inconclusive: 12.6 µM [fluorescent, side channel, partial curve]"}
{"smiles": "CCOc1ccc2nc(NC(=O)C3CCCN(S(=O)(=O)c4cccs4)C3)sc2c1", "note": "(stereo not drawn)", "Potency": "inconclusive: 39.8 µM [inhibitor, single point]"}
{"smiles": "Cc1ccc(NC(=O)CN(C)c2ccc(S(=O)(=O)N3CCN(C)CC3)cn2)cc1", "FP activity change, negative = inhibition": "inactive: 0.384%"}
{"smiles": "Cc1ccc(NC(=O)C2C3CCC(O3)C2C(=O)O)cc1C", "note": "(stereo not drawn)", "FP activity change, negative = inhibition": "inactive: -3.42%"}
{"smiles": "Cc1cc(C)cc(-n2nnnc2SCC(=O)Nc2cccc(NC(=O)c3ccco3)c2)c1", "Potency": "inconclusive: 10 µM [quencher, side channel, partial curve]"}
{"smiles": "O=C(Nc1nc(-c2ccccc2)cs1)c1ccc(Br)o1", "FP activity change, negative = inhibition": "inactive: -29.9%"}
{"smiles": "CCCCNC(=O)c1cn(CC)c2ccc(S(=O)(=O)N3CCCC3)cc2c1=O", "FP activity change, negative = inhibition": "inactive: -9.24%"}
{"smiles": "OCC1(CCOc2ccccc2)CCN(CC2=Cc3cc(Cl)ccc3OC2)CC1", "FP activity change, negative = inhibition": "inactive: 12.8%"}
{"smiles": "O=[N+]([O-])c1c(N2CCN(CCO)CC2)nc2ccccn12", "Potency": "inconclusive: 3.16 µM [inhibitor, partial curve]"}
{"smiles": "COc1ccc(Nc2nc(N)c(C(=O)c3ccc(OC)cc3)s2)cc1", "Potency": "inconclusive: 14.1 µM [quencher, side channel, partial curve]"}
{"smiles": "COc1ccc(NC(=O)c2cn(C)c(=O)c3cc(OC)c(OC)cc23)c(OC)c1", "Potency": "inconclusive: 2.82 µM [inhibitor, full curve]"}
{"smiles": "Cc1onc(-c2ccccc2)c1C(=O)NC(=S)NNC(=O)c1ccc(O)cc1", "Potency": "inconclusive: 25.1 µM [quencher, side channel, single point]"}
{"smiles": "CCOc1ccc(C(O)(c2ccccc2OC)C(CN2CCCC2)c2ccccc2)cc1", "note": "(stereo not drawn)", "Potency": "inconclusive: 7.08 µM [fluorescent, side channel, partial curve]"}
{"smiles": "FC(F)(F)c1nnc2c(Sc3ccc(Cl)cc3)nc3ccccc3n12", "Potency": "inconclusive: 3.16 µM [inhibitor, single point]"}
{"smiles": "CCOc1ccc2nc(NC(=O)C3CCCN(S(=O)(=O)c4cccc5nonc45)C3)sc2c1", "note": "(stereo not drawn)", "Potency": "inconclusive: 8.91 µM [quencher, side channel, partial curve]"}
{"smiles": "COc1cc(OC)cc(C(=O)N[C@H](C(=O)Nc2ccc(F)cc2F)C(C)C)c1", "Potency": "inconclusive: 12.6 µM [inhibitor, partial curve]"}
{"smiles": "CCc1cc2cc3c(cc2nc1SCC(=O)Nc1cc(OC)c(OC)cc1C(=O)O)OCO3", "Potency": "inconclusive: 35.5 µM [quencher, single point]"}
{"smiles": "Cn1cccc1CNC(=O)Nc1ccccc1", "FP activity change, negative = inhibition": "inactive: 2.67%"}
{"smiles": "O=C(Nc1cnn(Cc2ccc(F)cc2)c1)c1cc(-c2ccco2)on1", "Potency": "inconclusive: 7.94 µM [inhibitor, partial curve]"}
{"smiles": "CCOC(=O)N1CCN(C(=O)c2cc3c(=O)n4cccc(C)c4nc3s2)CC1", "Potency": "inconclusive: 39.8 µM [inhibitor, single point]"}
{"smiles": "CCCn1c(=N)n(CC(=O)c2ccco2)c2ccccc21", "Potency": "inconclusive: 39.8 µM [inhibitor, single point]"}
{"smiles": "CCC(CC)C(=O)N1CC(=O)Nc2ccc(C)cc2C1c1ccccc1", "note": "(stereo not drawn)", "Potency": "inconclusive: 10 µM [inhibitor, partial curve]"}
{"smiles": "Cc1ccc(NC(=S)NNC(=S)NCc2ccccc2)cc1", "Potency": "inconclusive: 31.6 µM [quencher, side channel, single point]"}
{"smiles": "O=C1Nc2cc(S(=O)(=O)N3CCCC3)ccc2N2CCCC12", "note": "(stereo not drawn)", "Potency": "inconclusive: 2.82 µM [inhibitor, full curve, poor fit]"}
{"smiles": "CC(C)(C)n1nnnc1C(c1cc2cc3c(cc2[nH]c1=O)OCO3)N1CCN(c2ccccc2)CC1", "note": "(stereo not drawn)", "FP activity change, negative = inhibition": "inactive: 10.7%"}
{"smiles": "O=C1CC(SCc2nc3ccccc3[nH]2)C(=O)N1c1ccc(F)cc1", "note": "(stereo not drawn)", "Potency": "inconclusive: 25.1 µM [quencher, side channel, single point]"}
{"smiles": "CC(=O)Nc1ccc(C(=O)OCC(=O)N(Cc2ccccc2)C(C)(C)C)cc1", "Potency": "inconclusive: 7.08 µM [fluorescent, side channel, single point]"}
{"smiles": "CCN(CC)C(=O)c1sc(NC(=O)c2ccoc2C)c(C(=O)OC)c1C", "Potency": "inconclusive: 20 µM [fluorescent, side channel, single point]"}
{"smiles": "CC(=O)Nc1ccc(-c2csc(NC(=O)c3ccc(C)o3)n2)cc1", "Potency": "inconclusive: 39.8 µM [quencher, side channel, single point]"}
{"smiles": "CCN(CC)S(=O)(=O)c1ccc2nc(NC(=O)c3cccs3)sc2c1", "Potency": "inconclusive: 17.8 µM [quencher, side channel, partial curve]"}
{"smiles": "COc1ccc(-c2cc(-c3nnc(COC(=O)c4ccc(O)cc4)o3)c3ccccc3n2)cc1OC", "Potency": "inconclusive: 5.62 µM [quencher, side channel, full curve]"}
{"smiles": "O=C(NC(=S)Nc1ccc(CN2CCCCC2)cc1)c1cccc(OCc2ccccc2)c1", "Potency": "inconclusive: 7.94 µM [fluorescent, side channel, full curve, poor fit]"}
{"smiles": "COC(=O)c1ccc(/C=N/Nc2nc(-c3ccccc3)cs2)cc1", "Potency": "inconclusive: 8.91 µM [quencher, side channel, partial curve]"}
{"smiles": "O=C(NCCCn1ccnc1)c1csc2ccccc12", "Potency": "inconclusive: 22.4 µM [inhibitor, partial curve]"}
{"smiles": "CC(C)C(=O)Nc1cccc(C(=O)Nc2cc([N+](=O)[O-])ccc2Cl)c1", "Potency": "inconclusive: 28.2 µM [quencher, side channel, single point]"}
{"smiles": "COc1cc2c(cc1OC)CN(C(=O)c1ccc(-c3ccccc3)cc1)CC2", "Potency": "inconclusive: 39.8 µM [inhibitor, single point]"}
